In brackets after ≈: the same amount, converted by molar mass. Like-named read-outs stand apart in the source and are kept apart here.

In general, MIC refers to the smallest concentration in the dilution series that meets the test's criterion for growth inhibition. By IC50 is commonly meant the concentration that inhibits the measured activity by half.

One experiment deals with C. krusei. Briefly: Antifungal Activity Assay (broth microtiter MIC), C. krusei. The conditions noted are these: Pichia kudriavzevii, ATCC6258, 48 h. The format is cell-based, Candida krusei. The procedure: (§1) Compounds of the present invention were evaluated in an Antifungal Activity Assay. An exemplary procedure for the assay, which measures the susceptibility of various Candida species to antifungal compounds, follows. Compounds to be tested (including fluconazole and amphotericin B) were dissolved in DMSO to obtain a solution having a concentration of 1 mg/mL. These stock solutions were sterile filtered using a 0.22 um nylon syringe filter, then diluted in sterile water to achieve a final concentration of 128 μg/mL.
(§2) All species were grown from frozen stock by directly plating on to freshly prepared Sabouraud Dextrose agar (BD, Difco) and incubated overnight in ambient air at 35° C. for 24 h. A direct suspension was prepared in RPMI 1640+MOPS (Lonza, Biowhittaker) by taking individual colonies from the overnight cultures using sterile swabs soaked in sterile saline. The concentration of the suspension was determined using pre-determined standard curves. These suspensions were then diluted down to 5×10^3 CFU/mL to achieve a final concentration of 2.5×10^3 CFU/mL once added to the microtiter plate as per CLSI guidelines (M27-A3, Vol. 28 No. 14).
(§3) Broth microtiter MIC challenge plates were prepared following CLSI guidelines (M27-A3, Vol. 28 No. 14). The original CLSI guidelines focused on reading Candida MICs after 48 h of incubation. As reading after only 24 h offers a clear advantage of patient care, QC limits are being established for all drugs at 24 h. That being said there are no known interpretive breakpoints for amphotericin B at 24 h and the current fluconazole interpretive breakpoints are based on a 48 h reading. The MICs for the test compounds were recorded at 48 h. All MIC determinations were achieved by visually comparing the growth found in the antibiotic challenged wells to that of the growth control.

A further experiment relates to Botrtyis cinerea (Bc). The experiment in a line: Growth inhibition assay of fungal pathogens, Bc. It counts as cell-based. The following applies: 48 h. As for the experimental part: (§4) Compounds of the present invention were evaluated in a growth inhibition assay to determine the ability to control the growth of fungal pathogens, such as Botrtyis cinerea (Bc), Collectotrichum graminicola (Cg), Diplodia maydis (Dm), Fusarium moniliforme (Fm), Fusarium virguliforme (Fv), Phytophthora capsici (Pc), Rhizoctonia solani (Rs), and Septoria tritici (St).
(§5) Compounds to be tested were dissolved in DMSO at 2.5 mg/ml to produce compound stock solutions (“stocks”). Stocks were diluted with DMSO by a five-fold dilution in a 96-well stock plate, and two sets of final concentrations of 50, 10, and 2 ppm or 2, 0.4, and 0.08 ppm were obtained in vitro. A set of positive controls was also prepared, with various concentrations of Soraphen (2, 0.4, and 0.08 ppm), Metalaxyl (1.1, 0.22, and 0.04 ppm), and Metconazole (2, 0.4, and 0.08 ppm or 0.2, 0.04, and 0.008 ppm) after the five-fold dilutions. Negative controls on each plate included 2% DMSO, water, and a blank (media+2% DMSO).
(§6) Fungal spores were isolated from previously sub-cultured plates of Botrtyis cinerea (Bc), Collectotrichum graminicola (Cg), Diplodia maydis (Dm), Fusarium moniliforme (Fm), Fusarium virguliforme (Fv), Phytophthora capsici (Pc), and Septoria tritici (St). The isolated spores were diluted to individual concentrations with a 17% V8 liquid media. For Rhizoctonia solani (Rs) and Pythium irregulare, 1.5 mm mycelial plugs were used in place of spores and/4 Potato Dextrose Broth (PDB) was used for dilution. The spore concentrations and plug sizes were based on growth curves generated at 48 hours for each pathogen.
(§7) In a second 96-well plate, the spores or mycelial plugs, media, diluted compound solutions, and controls were combined. Once the compound was added, a true final concentration of compound in each well was measured by an OD600 reading, which adjusted for any compound precipitation that might have occurred in the well. Plate readings were repeated at both 24 and 48 hours. The blank negative control was used as a background subtraction. Additional visual ratings were performed at both 24 and 48 hours for checking on precipitation and confirming efficacy. Visual and OD600 ratings of the compounds at 48 hours were compared to the 2% DMSO negative control, and the percent of pathogen growth inhibition was determined based on those values.

The next experiment deals with C. albicans. Briefly: Antifungal Activity Assay (broth microtiter MIC), C. albicans. It counts as cell-based. The following applies: Candida albicans, ATCC90028, 48 h. The procedure: as §1, §2, §3
In experiment [1] the test system is Collectotrichum graminicola (Cg). The experiment in a line: Growth inhibition assay of fungal pathogens, Cg. The conditions noted are these: 48 h. It counts as cell-based. The procedure: as §4, §5, §6, §7
Experiment [2] has as its system Fusarium moniliforme (Fm). Briefly: Growth inhibition assay of fungal pathogens, Fm. It counts as cell-based. The conditions noted are these: for IC90: Fusarium verticillioides, 48 h, read-out: Concentration at 90% Inhibition Fm. As for the experimental part: as §4, §5, §6, §7
Experiment [3] has as its system Fusarium virguliforme (Fv). The experiment in a line: Growth inhibition assay of fungal pathogens, Fv. The format is cell-based. The following applies: 48 h. The procedure:
as §4, §5, §6, §7

A further experiment addresses fungal (fACC2) (UniProt Q00955). The following applies: read-out: fACC2 (in vitro ACC2 Inhibition Assay, IC50), ADP-Glo, 5 nM ACC2, 20 μM ATP, 20 μM acetyl-CoA. A general note: ADP-Glo first removes unused ATP, then detects ADP through luciferase.
Chain of UniProt Q00955 (Q00955 whole entry): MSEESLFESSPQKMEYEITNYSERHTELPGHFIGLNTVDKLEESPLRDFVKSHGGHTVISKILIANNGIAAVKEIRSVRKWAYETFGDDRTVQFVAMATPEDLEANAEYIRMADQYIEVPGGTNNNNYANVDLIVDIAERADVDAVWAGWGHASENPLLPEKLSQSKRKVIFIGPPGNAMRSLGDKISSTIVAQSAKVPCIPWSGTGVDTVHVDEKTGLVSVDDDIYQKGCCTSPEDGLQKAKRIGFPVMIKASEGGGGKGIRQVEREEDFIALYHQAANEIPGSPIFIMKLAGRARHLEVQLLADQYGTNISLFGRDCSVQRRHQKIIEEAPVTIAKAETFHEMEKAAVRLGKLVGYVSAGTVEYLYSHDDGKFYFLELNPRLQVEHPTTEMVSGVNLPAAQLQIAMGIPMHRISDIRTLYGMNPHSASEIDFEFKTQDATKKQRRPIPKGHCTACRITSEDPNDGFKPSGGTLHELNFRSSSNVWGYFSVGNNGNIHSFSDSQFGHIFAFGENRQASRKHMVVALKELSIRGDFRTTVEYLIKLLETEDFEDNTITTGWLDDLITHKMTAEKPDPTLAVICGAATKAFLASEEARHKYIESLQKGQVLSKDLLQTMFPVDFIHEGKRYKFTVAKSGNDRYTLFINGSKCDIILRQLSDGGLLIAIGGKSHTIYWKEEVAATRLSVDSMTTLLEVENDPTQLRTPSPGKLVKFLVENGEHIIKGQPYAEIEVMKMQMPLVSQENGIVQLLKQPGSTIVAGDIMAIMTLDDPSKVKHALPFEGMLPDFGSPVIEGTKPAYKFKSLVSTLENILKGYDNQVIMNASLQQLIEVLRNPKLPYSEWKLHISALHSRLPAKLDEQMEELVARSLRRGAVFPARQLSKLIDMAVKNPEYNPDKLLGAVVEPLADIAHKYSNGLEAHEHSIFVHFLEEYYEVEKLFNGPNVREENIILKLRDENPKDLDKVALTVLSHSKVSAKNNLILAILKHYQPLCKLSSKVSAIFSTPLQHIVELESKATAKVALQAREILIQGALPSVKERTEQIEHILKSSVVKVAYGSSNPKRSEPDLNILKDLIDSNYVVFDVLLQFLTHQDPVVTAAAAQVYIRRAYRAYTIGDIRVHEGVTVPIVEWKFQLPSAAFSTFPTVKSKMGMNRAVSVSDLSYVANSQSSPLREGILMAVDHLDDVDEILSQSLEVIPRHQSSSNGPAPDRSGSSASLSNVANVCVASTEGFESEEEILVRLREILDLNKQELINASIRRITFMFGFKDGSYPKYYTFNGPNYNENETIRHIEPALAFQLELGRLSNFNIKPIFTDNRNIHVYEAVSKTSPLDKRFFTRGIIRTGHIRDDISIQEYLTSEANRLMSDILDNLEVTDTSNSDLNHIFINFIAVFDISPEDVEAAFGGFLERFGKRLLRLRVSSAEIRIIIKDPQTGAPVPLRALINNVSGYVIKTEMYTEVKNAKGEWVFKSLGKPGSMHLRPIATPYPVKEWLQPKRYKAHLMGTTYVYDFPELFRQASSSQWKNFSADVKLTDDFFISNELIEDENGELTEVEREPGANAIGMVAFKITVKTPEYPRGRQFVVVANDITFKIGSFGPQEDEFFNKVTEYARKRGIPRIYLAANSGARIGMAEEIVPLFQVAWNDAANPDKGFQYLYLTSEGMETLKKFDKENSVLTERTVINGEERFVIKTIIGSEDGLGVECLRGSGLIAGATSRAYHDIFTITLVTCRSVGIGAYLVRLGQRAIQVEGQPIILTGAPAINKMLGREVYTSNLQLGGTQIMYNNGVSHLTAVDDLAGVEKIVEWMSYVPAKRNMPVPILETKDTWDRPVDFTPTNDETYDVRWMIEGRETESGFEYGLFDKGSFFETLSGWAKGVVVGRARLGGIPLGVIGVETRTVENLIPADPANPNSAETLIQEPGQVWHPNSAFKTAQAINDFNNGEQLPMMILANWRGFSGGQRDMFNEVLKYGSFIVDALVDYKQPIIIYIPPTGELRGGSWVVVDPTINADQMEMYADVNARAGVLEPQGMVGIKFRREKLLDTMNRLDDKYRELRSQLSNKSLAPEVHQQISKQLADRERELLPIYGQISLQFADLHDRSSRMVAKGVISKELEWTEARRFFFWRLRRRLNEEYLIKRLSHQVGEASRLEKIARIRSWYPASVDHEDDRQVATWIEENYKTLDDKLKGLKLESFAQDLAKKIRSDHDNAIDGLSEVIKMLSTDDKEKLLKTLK
The next experiment relates to Septoria tritici (St). The experiment in a line: Growth inhibition assay of fungal pathogens, St. It counts as cell-based. The conditions noted are these: Zymoseptoria tritici, 48 h. The procedure:
as §4, §5, §6, §7

The test system of another experiment is C. parapsilosis. Briefly: Antifungal Activity Assay (broth microtiter MIC), C. parapsilosis. It counts as cell-based, Candida parapsilosis. The following applies: Lodderomyces parapsilosis, ATCC22019, 48 h. The procedure:
as §1, §2, §3

For another experiment, the system named is Diplodia maydis (Dm). Briefly: Growth inhibition assay of fungal pathogens, Dm. The format is cell-based. The conditions noted are these: Stenocarpella maydis, 48 h. The procedure: as §4, §5, §6, §7
Where [4] appears, read: Fusarium moniliforme, growth inhibition at 48 hours vs 2% DMSO control.

With `COc1ccccc1[C@H](Cn1c(=O)n(C(C)(C)C(=O)NC2CCC2)c(=O)c2c(C)c(-n3nccn3)sc21)OC1CCOCC1` [Compound I-20, (R)—N-cyclobutyl-2-(1-(2-(2-methoxyphenyl)-2-((tetrahydro-2H-pyran-4-yl)oxy)ethyl)-5-methyl-2,4-dioxo-6-(2H-1,2,3-triazol-2-yl)-1,4-dihydrothieno[2,3-d]pyrimidin-3(2H)-yl)-2-methylpropanamide], the MIC was in the range of 0.25 to 1 µg/mL (≈ 0.401 to 1.61 µM) in the experiment with C. krusei (Table 3a, ATCC 6258, 3 replicates, MIC recorded at 48 h, read-out: MIC, C. krusei ATCC 6258); 0.06 to 0.249 µg/mL (≈ 0.0963 to 0.4 µM) with C. krusei (Table 3b (additional results), ATCC 6258, 3 replicates, MIC recorded at 48 h, read-out: MIC, C. krusei ATCC 6258); 0.25 to 1 µg/mL (≈ 0.401 to 1.61 µM) in the experiment with C. albicans (Table 3a, ATCC 90028, 3 replicates, MIC recorded at 48 h, read-out: MIC, C. albicans ATCC 90028); 0.25 to 1 µg/mL (≈ 0.401 to 1.61 µM) in the experiment with C. albicans (Table 3b (additional results), ATCC 90028, 3 replicates, MIC recorded at 48 h, read-out: MIC, C. albicans ATCC 90028); 0.25 to 1 µg/mL (≈ 0.401 to 1.61 µM) with C. parapsilosis (Table 3a, ATCC 22019, 3 replicates, MIC recorded at 48 h, read-out: MIC, C. parapsilosis ATCC 22019); 0.25 to 1 µg/mL (≈ 0.401 to 1.61 µM) in the experiment with C. parapsilosis (Table 3b (additional results), ATCC 22019, 3 replicates, MIC recorded at 48 h, read-out: MIC, C. parapsilosis ATCC 22019). The IC90 in the experiment on Botrtyis cinerea (Bc) (Botrtyis cinerea, growth inhibition at 48 hours vs 2% DMSO control, read-out: Concentration at 90% Inhibition Bc) is 0.4 µg/mL (≈ 0.642 µM); in the experiment on Botrtyis cinerea (Bc) (Botrtyis cinerea, growth inhibition vs 2% DMSO control at 48 hours, read-out: Concentration at 90% Inhibition Bc), 0.4 µg/mL (≈ 0.642 µM); in experiment [1] (Collectotrichum graminicola, growth inhibition at 48 hours vs 2% DMSO control, read-out: Concentration at 90% Inhibition Cg), 0.4 µg/mL (≈ 0.642 µM); in experiment [1] (Collectotrichum graminicola, growth inhibition vs 2% DMSO control at 48 hours, read-out: Concentration at 90% Inhibition Cg) it was 0.4 µg/mL (≈ 0.642 µM); in experiment [2] (setting [4]), 0.08 µg/mL (≈ 0.128 µM); in [2] (Fusarium moniliforme, growth inhibition vs 2% DMSO control at 48 hours), 0.08 µg/mL (≈ 0.128 µM). Moreover, the IC90 in [3] (growth inhibition at 48 hours vs 2% DMSO control, read-out: Concentration at 90% Inhibition Fv) is 0.4 µg/mL (≈ 0.642 µM); in [3] (growth inhibition vs 2% DMSO control at 48 hours, read-out: Concentration at 90% Inhibition Fv) it was 0.4 µg/mL (≈ 0.642 µM); in the experiment with Septoria tritici (St) (Septoria tritici, growth inhibition at 48 hours vs 2% DMSO control, read-out: Concentration at 90% Inhibition St), 10 µg/mL (≈ 16.1 µM); in the experiment on Septoria tritici (St) (Septoria tritici, growth inhibition vs 2% DMSO control at 48 hours, read-out: Concentration at 90% Inhibition St) it was over 50 µg/mL; in the experiment with Diplodia maydis (Dm) (Diplodia maydis, growth inhibition at 48 hours vs 2% DMSO control, read-out: Concentration at 90% Inhibition Dm), 0.4 µg/mL (≈ 0.642 µM); with Diplodia maydis (Dm) (Diplodia maydis, growth inhibition vs 2% DMSO control at 48 hours, read-out: Concentration at 90% Inhibition Dm), 0.4 µg/mL (≈ 0.642 µM). For the same molecule, the IC50 on fungal (fACC2) (Table 2a) lay in the range of 1 to 5 nM; at fungal (fACC2) (Table 2b, additional results) it was 1 to 5 nM.

Take `COc1ccccc1[C@H](Cn1c(=O)n(C(C)(C)C(=O)NC2CCCCC2)c(=O)c2c(C)c(-n3nccn3)sc21)OC1CCOCC1` [Compound I-21, (R)—N-cyclohexyl-2-(1-(2-(2-methoxyphenyl)-2-((tetra-hydro-2H-pyran-4-yl)oxy)ethyl)-5-methyl-2,4-dioxo-6-(2H-1,2,3-triazol-2-yl)-1,4-dihydrothieno[2,3-d]pyrimidin-3(2H)-yl)-2-methylpropanamide]: the MIC in the experiment on C. krusei (read-out: MIC, C. krusei ATCC 6258, Table 3a, 3 replicates, MIC recorded at 48 h) lay in the range of 0.25 to 1 µg/mL (≈ 0.384 to 1.54 µM); with C. krusei (read-out: MIC, C. krusei ATCC 6258, Table 3b (additional results), 3 replicates, MIC recorded at 48 h) it was 0.06 to 0.249 µg/mL (≈ 0.0922 to 0.383 µM); with C. albicans (read-out: MIC, C. albicans ATCC 90028, Table 3a, 3 replicates, MIC recorded at 48 h), 0.25 to 1 µg/mL (≈ 0.384 to 1.54 µM); with C. albicans (read-out: MIC, C. albicans ATCC 90028, Table 3b (additional results), 3 replicates, MIC recorded at 48 h), 0.25 to 1 µg/mL (≈ 0.384 to 1.54 µM); in the experiment on C. parapsilosis (read-out: MIC, C. parapsilosis ATCC 22019, Table 3a, 3 replicates, MIC recorded at 48 h) it was 0.25 to 1 µg/mL (≈ 0.384 to 1.54 µM); in the experiment with C. parapsilosis (read-out: MIC, C. parapsilosis ATCC 22019, Table 3b (additional results), 3 replicates, MIC recorded at 48 h), 0.06 to 0.249 µg/mL (≈ 0.0922 to 0.383 µM). Moreover, the IC90 came out at 0.4 µg/mL (≈ 0.615 µM) in the experiment on Botrtyis cinerea (Bc) (read-out: Concentration at 90% Inhibition Bc, Botrtyis cinerea, growth inhibition at 48 hours vs 2% DMSO control); 0.4 µg/mL (≈ 0.615 µM) in the experiment with Botrtyis cinerea (Bc) (read-out: Concentration at 90% Inhibition Bc, Botrtyis cinerea, growth inhibition vs 2% DMSO control at 48 hours); 2 µg/mL (≈ 3.07 µM) in [1] (read-out: Concentration at 90% Inhibition Cg, Collectotrichum graminicola, growth inhibition at 48 hours vs 2% DMSO control); 10 µg/mL (≈ 15.4 µM) in experiment [1] (read-out: Concentration at 90% Inhibition Cg, Collectotrichum graminicola, growth inhibition vs 2% DMSO control at 48 hours); 0.08 µg/mL (≈ 0.123 µM) in experiment [2]; 2 µg/mL (≈ 3.07 µM) in experiment [3] (read-out: Concentration at 90% Inhibition Fv, Fusarium virguliforme, growth inhibition at 48 hours vs 2% DMSO control). The IC90 is 2 µg/mL (≈ 3.07 µM) in [3] (read-out: Concentration at 90% Inhibition Fv, Fusarium virguliforme, growth inhibition vs 2% DMSO control at 48 hours); 10 µg/mL (≈ 15.4 µM) in the experiment on Septoria tritici (St) (read-out: Concentration at 90% Inhibition St, Septoria tritici, growth inhibition at 48 hours vs 2% DMSO control); over 50 µg/mL with Septoria tritici (St) (read-out: Concentration at 90% Inhibition St, Septoria tritici, growth inhibition vs 2% DMSO control at 48 hours); 0.4 µg/mL (≈ 0.615 µM) in the experiment on Diplodia maydis (Dm) (read-out: Concentration at 90% Inhibition Dm, Diplodia maydis, growth inhibition at 48 hours vs 2% DMSO control); 0.4 µg/mL (≈ 0.615 µM) in the experiment with Diplodia maydis (Dm) (read-out: Concentration at 90% Inhibition Dm, Diplodia maydis, growth inhibition vs 2% DMSO control at 48 hours). Moreover, in [2] (setting [4]), the “Concentration at 90% Inhibition Fm” value is “AA (compound concentration of 0.08 ppm at 90% inhibition of fungal pathogens)”. Also, the IC50 was in the range of 1 to 5 nM at fungal (fACC2) (Table 2a) and 1 to 5 nM at fungal (fACC2) (Table 2b, additional results).

The record behind these values is patent US10800791B2, “Triazole ACC inhibitors and uses thereof” (Gilead Apollo, LLC, priority 2015, dated 2020).
